Activity change, negative = inhibition data for 30 molecules are collected here from PubChem BioAssay AID1745853 (National Center for Advancing Translational Sciences (NCATS), 2022).

Values joined by “and” are separate entries in the source; they are usually repeats but may differ in a detail not shown here. Equal entries are not always repeated. Some of the results follow. These are further read-outs of the screen, such as a control signal, another cell line or another target. No call is given for them.

Holding throughout (test): Primary Screen for Target Class Profiling of Small Molecule Inhibitors of Methyltransferases
Experiment [1] concerns the target Glycine N-methyltransferase (Homo sapiens) (UniProt Q14749). The conditions noted are these: purified enzyme, MTase-Glo SAH luminescence; measured here: GNMT inhibition; at 40 µM; stronger effect = lower value. In a few lines: (§1)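 Each enzyme was reacted with SAM and its substrate, with compounds tested once at 40 uM; SAH formed was read by MTase-Glo luminescence.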
Experiment [2] deals with Guanidinoacetate N-methyltransferase (Homo sapiens) (UniProt Q14353). The conditions noted are these: purified enzyme, MTase-Glo SAH luminescence; measured here: GAMT inhibition; at 40 µM; stronger effect = lower value. In a few lines: as §1
Experiment [3] deals with Histamine N-methyltransferase (Homo sapiens) (UniProt P50135). The conditions noted are these: purified enzyme, MTase-Glo SAH luminescence; measured here: HNMT inhibition; at 40 µM; stronger effect = lower value. In a few lines: as §1
In experiment [4] the target is Nicotinamide N-methyltransferase (Homo sapiens) (UniProt P40261). The conditions noted are these: purified enzyme, MTase-Glo SAH luminescence; measured here: NNMT inhibition; at 40 µM; stronger effect = lower value. In a few lines: as §1
Experiment [5] addresses Phenylethanolamine N-methyltransferase (Homo sapiens) (UniProt P11086). To be noted: purified enzyme, MTase-Glo SAH luminescence; measured here: PNMT inhibition; at 40 µM; stronger effect = lower value. The method in brief: as §1
% is set by controls: 0 for no effect and ±100 for the full control effect.

Consider `COc1ccc(-c2ccnc(N[C@H]3CO[C@H]4[C@@H]3OC[C@@H]4NC(=O)Nc3ccc(C(C)=O)cc3)n2)cc1`, for which the activity change, negative = inhibition in experiment [1] is -37%; in experiment [2], -8.49%; in experiment [3], -20.4%; in experiment [4], -22.6%; in experiment [5], -6.83%.

As to `CC1=C(C(=O)N2CCC(CCC(=O)Nc3ccc4c(c3)OCCO4)CC2)OCCO1`, the activity change, negative = inhibition is -0.414% in experiment [1]; 2.89% in experiment [2]; 1.28% in experiment [3]; 0.456% in experiment [4]; 5.33% in experiment [5].

`CCOC(=O)c1cc2n(n1)CC(C)(C(=O)NC1CCC(C)CC1)N(Cc1cccc(F)c1)C2=O` (stereo unspecified): the activity change, negative = inhibition in experiment [1] is 2.18%; in experiment [2] it was 0%; in experiment [3], 1.25%; in experiment [4], -1.3%; in experiment [5] it was -0.3%.

For `CN(C)c1ccc(C(=O)N[C@H]2CC(C)(C)[C@@H]3C[C@@](C)(O)CC[C@]23CCC(=O)NC2CC2)cc1`, the activity change, negative = inhibition was -2.28% in experiment [1]; -1.59% in experiment [2]; 0.381% in experiment [3]; -2.13% in experiment [4]; -6.29% in experiment [5].

Take `CN(C)S(=O)(=O)c1cccc(-c2nnc(-c3ccccc3Cl)o2)c1`: the activity change, negative = inhibition is 1.09% in experiment [1]; 0% in experiment [2]; 1.59% in experiment [3]; -6.78% in experiment [4]; 2.2% in experiment [5].

For `COc1ccc2[nH]c(=O)c3c(c2c1)OC(C)(C)C=C3`, the activity change, negative = inhibition in experiment [1] is -9.14%; in experiment [2] it was 4.71%; in experiment [3], 4.83%; in experiment [4] it was -14.7%; in experiment [5], 1.32%.

For `Cc1ccc(Cc2nn3c(SCC(=O)Nc4ccc(C)c(C)c4)nnc3[nH]c2=O)cc1`, the activity change, negative = inhibition was -5.34% in experiment [1]; 1.63% in experiment [2]; -5.45% in experiment [3]; -12.1% in experiment [4]; -6.41% in experiment [5].

As to `O=C([C@H]1O[C@H](CCN2CCC(CO)CC2)CC[C@@H]1O)N1CCN(c2ccccc2)CC1`, the activity change, negative = inhibition in experiment [1] is -4.9%; in experiment [2], -6.75%; in experiment [3], -4.09%; in experiment [4], -10%; in experiment [5] it was -3.51%.

Regarding `COc1cccc(CNC(=O)Cn2nc3n(CCc4ccccc4)c(=O)c4ccccc4n3c2=O)c1`, the activity change, negative = inhibition in experiment [1] was -2.32%; in experiment [2], 0.957%; in experiment [3], 3.13%; in experiment [4] it was -4.12%; in experiment [5], -1.67%.

Turning to `CN[C@@H](C)C(=O)N[C@H](C(=O)N1CCC[C@H]1c1nc(C(=O)c2ccc(F)cc2)cs1)C1CCCCC1`, the activity change, negative = inhibition is 0.254% in experiment [2], -16.8% in experiment [4] and -0.952% in experiment [5].

Regarding `COc1ccc(NC(=O)CCc2nnc3n(CCc4ccccc4)c(=O)c4ccccc4n23)cc1`, the activity change, negative = inhibition in experiment [1] is 0.431%; in experiment [2] it was 0%; in experiment [3], 5.69%; in experiment [4] it was -3.75%; in experiment [5], 0.335%.

Regarding `C=Cc1cc(O)cc2nc(-c3ccc(O)c(F)c3)oc12`, the activity change, negative = inhibition in experiment [1] was -72.1%; in experiment [2], -43.9%; in experiment [3], -76.1%; in experiment [4] it was -54%; in experiment [5], -57%.

In the case of `CC(C)OCCCn1c(=O)c2ccccc2n2c(=O)n(CC(=O)Nc3ccc(F)cc3)nc12`, the activity change, negative = inhibition in experiment [1] was 4.01%; in experiment [2], 0.412%; in experiment [3], 9.09%; in experiment [4], -0.38%; in experiment [5] it was 5.93%.

Turning to `Cc1cccc(CN2C(=O)c3cc4ccccc4n3CC2(C)C(=O)NCCCOC(C)C)c1` (stereo unspecified), the activity change, negative = inhibition in experiment [1] was determined as 2.68%; in experiment [2] it was 4.49%; in experiment [3], 0.83%; in experiment [4], 0.641%; in experiment [5] it was 1.67%.

Regarding `C[C@@H]1O[C@@H](O[C@H]2[C@H](O[C@H]3[C@H](O[C@H]4CC[C@@]5(CO)C(CC[C@]6(C)C5CC=C5C7CC(C)(C)C[C@@H](O)[C@]7(C)CC[C@]56C)C4(C)C)O[C@H](C(=O)O)[C@@H](O)[C@@H]3O)OC[C@@H](O)[C@@H]2O)[C@H](O)[C@H](O)[C@H]1O` (stereo partly specified), the activity change, negative = inhibition in experiment [1] was 5.89%; in experiment [2] it was 8.47%; in experiment [3], 7.44%; in experiment [4], -8.92%; in experiment [5] it was 10.3%.

For `CCCn1c(=O)c2ccc(C(=O)NC(C)C)cc2n2c(=O)n(CC(=O)NCc3ccc(C)cc3)nc12`, the activity change, negative = inhibition came out at 8.84% in experiment [1]; 0% in experiment [2]; 3.52% in experiment [3]; 6.94% in experiment [4]; 8.47% in experiment [5].

`COc1ccccc1CNC(=O)C1(C)Cn2nc(-c3ccccc3)cc2C(=O)N1c1ccc(C)cc1C` (stereo unspecified): the activity change, negative = inhibition is 2.35% in experiment [1]; 0% in experiment [2]; 5.79% in experiment [3]; 3.35% in experiment [4]; -1.93% in experiment [5].

With `Cn1c2c(c3ccccc31)C(C(=O)NCc1ccccc1)N(CCc1ccc(Cl)cc1)C(=O)CS2` (stereo unspecified), the activity change, negative = inhibition in experiment [1] was found to be 12.6%; in experiment [2], 0.43%; in experiment [3] it was 6.91%; in experiment [4] it was 8.61%; in experiment [5], 6.45%.

In the case of `COc1nccc(-c2c(-c3ccc(F)cc3)ncn2C2CCC(O)CC2)n1` (stereo unspecified), the activity change, negative = inhibition in experiment [1] is 2.17% and 2.95%; in experiment [2], 8.97%; in experiment [3] it was 17.2% and 12.1%; in experiment [4] it was -4.12% and -8.11%; in experiment [5], 25.2% and 6.98%.

Consider `CCCN1CCN(CCCNC(=O)c2cc3n(n2)CC(C)(C(=O)NCc2ccc(F)cc2)N(C)C3=O)CC1` (stereo unspecified), for which the activity change, negative = inhibition is -4.01% in experiment [1]; 0% in experiment [2]; -2.41% in experiment [3]; -3.5% in experiment [4]; -5.59% in experiment [5].

On to `Cc1ccc(C(c2sc3nc(-c4ccco4)nn3c2O)N2CCOCC2)cc1` (stereo unspecified), for which the values for the activity change, negative = inhibition in experiment [2], in experiment [4] and in experiment [5] were 2.2%, -9.95% and 4.52%, respectively.

Consider `C[C@@H]1CN(C(=O)CN2CCN(c3ncccn3)CC2)C[C@@]1(O)C1CCC1`, for which the activity change, negative = inhibition is -7.22% in experiment [1]; -6.59% in experiment [2]; -3.7% in experiment [3]; -14.2% in experiment [4]; -9.85% in experiment [5].

Take `Cc1cc2c(cc3n2CC(C)(C(=O)NC2CCCCCC2)N(Cc2ccco2)C3=O)o1` (stereo unspecified): the activity change, negative = inhibition in experiment [1] was -1.91%; in experiment [2], 4.9%; in experiment [3] it was 3.07%; in experiment [4], -7.6%; in experiment [5], 0.84%.

`CC(C)n1cc2cc(C(=O)O)sc2c1`: the activity change, negative = inhibition was -5.58% in experiment [1]; -0.463% in experiment [2]; 1.53% in experiment [3]; -0.643% in experiment [4]; -0.806% in experiment [5].

For `CC(C)COC(=O)N1CCCn2nc(-c3nc4ccccc4n3C)cc2C1`, the activity change, negative = inhibition in experiment [1] is -10.6%; in experiment [2] it was -10.5%; in experiment [3] it was -9.75%; in experiment [4], -22.2%; in experiment [5], -13.5%.

For the molecule `COC1C=C([C@@H]2CC=C3[C@@]4(C)C(CC[C@]32C)[C@@]2(C)C=CC(=O)C(C)(C)C2C[C@H]4OC(C)=O)C(=O)O1` (stereo partly specified), the activity change, negative = inhibition is 1.69% in experiment [1]; 7.23% in experiment [2]; 6.2% in experiment [3]; -7.59% in experiment [4]; 1.46% in experiment [5].

In the case of `CC(C)OCCCn1c(=O)c2ccccc2n2c(SCc3cccc(Cl)c3)nnc12`, the activity change, negative = inhibition in experiment [1] is -7.58%; in experiment [2] it was 0%; in experiment [3], 2.57%; in experiment [4] it was -10.2%; in experiment [5], 2.96%.

Regarding `O=C1NC2(CCN(Cc3cncs3)C2)OCc2ccccc21` (stereo unspecified), the activity change, negative = inhibition in experiment [1] was -12.4%; in experiment [2], -9.09%; in experiment [3], -2.58%; in experiment [4], -7.63%; in experiment [5], -5.22%.

Consider `COc1ccc(CNc2nc3c(S(=O)(=O)c4ccc(Br)cc4)nnn3c3ccccc23)cc1`, for which the activity change, negative = inhibition was -2.26% in experiment [1]; 0.817% in experiment [2]; 8.61% in experiment [3]; -4.59% in experiment [4]; -1.19% in experiment [5].

For the molecule `O=c1cc(-c2ccccc2)oc2c(O)c(O)ccc12`, the activity change, negative = inhibition in experiment [1] was -19.8%; in experiment [2], 9.05%; in experiment [3], 4.29%; in experiment [4], -6.78%; in experiment [5], 5.1%.
